Assay results published in PubChem BioAssay (NCATS).
Inconclusive means that the source gave no clear call. Such entries were picked first, then a sample of the others. For part of these data: No potency is given beside an inconclusive call; the fits are too rough. Calls of active or inactive are those of the source. Unless noted, calls follow the shape of the dose curve; as a rule, active = well fitted curve in the direction sought with a large enough effect; inconclusive = small, poorly fitted or top-dose-only effect, or another doubt; inactive = no such curve, though single readings can be large; an effect the other way counts as inactive or inconclusive.

What was measured:
[1] = Cytometry Cell-Based qHTS for Inhibitors of the mTORC1 Signaling Pathway in MEF cells (AID 2668); also: potency is read from the fitted curve at half-maximal effect
How it was run: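 Read-out: phospho-rpS6 Ser235/236 immunofluorescence normalized to propidium iodide intensity, scored as % active cells against a rapamycin (7.5 nM) threshold. Cells: Tsc2-/-, p53-/- MEFs stably expressing WT Tsc2, compound-treated 24 hrs at 37 degree Celsius.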

[2] = biological target: ATP-dependent 6-phosphofructokinase (Trypanosoma brucei brucei) (UniProt O15648); test: qHTS Validation Assay to Find Inhibitors of T. brucei phosphofructokinase (AID 485368); settings: activity change, negative = inhibition: at 57.5 µM (top of the series); also: potency is read from the fitted curve at half-maximal effect
How it was run: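 qHTS format, up to 57 uM. PFK 1.25 nM; F6P 0.5 mM; ATP 0.1 mM; 5 mM MgCl2, 0.01% Tween20, 0.1% BSA; 0.1 M TEA pH 8.0; 45 min RT; ADP-Glo readout; no-enzyme control = full inhibition.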

[3] = biological target: Thioredoxin reductase 1, cytoplasmic (Rattus norvegicus) (UniProt O89049); test: qHTS Assay for Inhibitors of Mammalian Selenoprotein Thioredoxin Reductase 1 (TrxR1) (AID 488773); settings: Potency: inhibition; also: nearly all actives have a fitted effect of over 40% in size; also: potency is read from the fitted curve at half-maximal effect;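 as to activity change, negative = inhibition: drop in NADPH fluorescence over an 8 min run after selenite addition; % is scaled to controls: 0 for no effect and ±100 for the full control effect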
How it was run: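 Inhibition is scored from the loss of NADPH fluorescence between first and last reads of an 8-min kinetic run. Selenite (400 uM) was the substrate, added after 15 min compound preincubation at room temperature.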

[4] = biological target: DNA repair nuclease/redox regulator APEX1 (Homo sapiens) (UniProt P27695); test: Confirmation qHTS Assay for Inhibitors of the Human Apurinic/apyrimidinic Endonuclease 1 (APE1) (AID 2572); also: potency is read from the fitted curve at half-maximal effect; nearly all actives have a fitted effect of over 30% in size
How it was run: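 APE1 endonuclease activity was assessed as fluorescence released when the enzyme nicked a quenched abasic-site duplex (50 nM final). Compounds were preincubated with enzyme 15 min at room temperature before substrate addition.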

[5] = biological target: DNA repair nuclease/redox regulator APEX1 (Homo sapiens) (UniProt P27695); test: qHTS FP-Based Assay for Inhibitors of the Human Apurinic/apyrimidinic Endonuclease 1 (APE1) (AID 2573); also: potency is read from the fitted curve at half-maximal effect
[6] = Counterscreen for APE1 Inhibitors: Fluorescent Dye Displacement Assay (AID 2564); settings: DNA fluorescent dye displacement counterscreen, fluorescence;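 also: loss of thiazole orange fluorescence as the dye is displaced from duplex DNA; potency is read from the fitted curve at half-maximal effect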
How it was run: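 Endpoint fluorescence read at 480 nm excitation / 540 nm emission; DNA-binding compounds lower signal by displacing 250 nM Thiazole Orange from 50 nM dsDNA containing a tetrahydrofuran abasic site, Tris-HCl pH7.5 buffer with NaCl and MgCl2.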

[7] = Validation screen for small molecules that induce DNA re-replication in MCF 10A normal breast cells (AID 463097); also: potency is read from the fitted curve at half-maximal effect; nearly all actives have a fitted effect of over 60% in size
How it was run: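 250 MCF 10A cells/well; compound pin-transferred; 48 hr, 37 C, 5% CO2; Hoechst 40 min; imaged 405/500-530 nm. Hits = more high-intensity nuclei.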

[8] = Quantitative high throughput screen for delayed death inhibitors of the malarial parasite plastid, 96 hour incubation (AID 488745); also: nearly all actives have a fitted effect of over 70% in size; also: potency is read from the fitted curve at half-maximal effect;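 as to activity change, negative = inhibition: luciferase-expressing P. falciparum in erythrocytes at 2% hematocrit and 0.1% parasitemia; % is scaled to controls: 0 for no effect and ±100 for the full control effect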
How it was run: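 Luciferase-expressing P. falciparum, infected RBCs 2% Hct/0.1% parasitemia (final); 96 h cpd exposure, 37 C, 5% CO2; RPMI 1640 + 0.5% Albumax, bicarbonate, gentamycin. Readout: luminescence loss = growth inhibition.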

[9] = biological target: Transient receptor potential cation channel subfamily V member 1 (Homo sapiens) (UniProt Q8NER1); test: HTS Assay for Compounds that Act as Enhancers of the Vanilloid Receptor 1 (AID 488979); settings: TRPV1-expressing cells, enhancer of channel activity; stimulated with capsaicin at EC20; also: potency is read from the fitted curve at half-maximal effect
How it was run: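 TRPV1-expressing cells loaded with Fluo-8 calcium dye; compounds added and calcium influx read kinetically for 3 min (agonist phase), then capsaicin at EC20 added and read 2 min more for enhancement. Fluorescence ex 480/em 520 nm.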

[10] = biological target: Chromobox protein homolog 1 (Homo sapiens) (UniProt P83916); test: qHTS Validation Assay for Inhibitors of HP1-beta Chromodomain Interactions with Methylated Histone Tails (AID 488953); also: nearly all actives have a fitted effect of over 50% in size; also: potency is read from the fitted curve at half-maximal effect;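 as to activity change, negative = inhibition: loss of AlphaScreen luminescence from HP1-beta binding biotinylated H3K9me3 peptide; % is scaled to controls: 0 for no effect and ±100 for the full control effect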
How it was run: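 AlphaScreen proximity readout: streptavidin donor and Ni-chelate acceptor beads, 10 ug/mL final, 30 min dark, RT. Complex of 50 nM HP1-beta and 50 nM b-H3(1-18)K9me3 formed 30 min, then compound-treated 30 min; PBS pH 7.4/0.01% Tween-20.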

[11] = qHTS Validation Assay to Find Inhibitors of Chronic Active B-Cell Receptor Signaling (AID 485345; active = well fitted curve in the direction sought with a large enough effect in the main read-out, with a control signal flat, not every such curve was filed as active; inconclusive = small, poorly fitted or top-dose-only effect, or effect the other way, or a change in a side signal; inactive = no such curve, though single readings can be large or run the other way;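 also: 0% = untreated basal cells and 100% = 10 µM MG-132 proteasome inhibitor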); settings: ABC-DLBCL cells, chronic BCR signaling reporter; activity change: CBG luciferase, at 46.1 µM (top of the series)
How it was run: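 TMD8 ABC-DLBCL cells with dox-inducible green luciferase–IκBα fusion and red native luciferase; compounds 46 uM–3 nM, 4 h at 37C with doxycycline in 0.5% FBS IMDM. Green/red ratio normalized to basal and 10 uM MG-132.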

[12] = Quantitative high throughput screen for delayed death inhibitors of the malarial parasite plastid, 48 hour incubation (AID 488752); also: nearly all actives have a fitted effect of over 65% in size; also: potency is read from the fitted curve at half-maximal effect; as to activity change, negative = inhibition: % is scaled to controls: 0 for no effect and ±100 for the full control effect
How it was run: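 Luciferase-expressing P. falciparum in RBCs, 2% Hct, 0.1% parasitemia final; RPMI 1640 + 0.5% Albumax; 48 h, 37 C, 5% CO2; luminescence readout, signal drop = growth inhibition.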

[13] = biological target: M-phase phosphoprotein 8 (Homo sapiens) (UniProt Q99549); test: qHTS Validation Assay for Inhibitors for MPP8 Chromodomain Interactions with Methylated Histone Tails (AID 488949); also: potency is read from the fitted curve at half-maximal effect; nearly all actives have a fitted effect of over 55% in size
How it was run: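 AlphaScreen read-out: streptavidin donor and nickel chelate acceptor beads (final 10 ug/mL), 30 min in the dark at RT. Complex of 50 nM MPP8 and 50 nM b-H3(1-18)K9me3 peptide had been exposed to compounds for 30 min beforehand.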

[14] = biological target: Thioredoxin reductase 1, cytoplasmic (Rattus norvegicus) (UniProt O89049); test: qHTS Assay for Substrates of Mammalian Selenoprotein Thioredoxin Reductase 1 (TrxR1) (AID 488772); settings: purified TrxR1, NADPH consumption substrate assay;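 also: potency is read from the fitted curve at half-maximal effect; a drop in NADPH fluorescence below the no-compound background marks a TrxR1 substrate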
How it was run: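 In this dual-purpose format, potential substrates are identified from the first fluorescence read after selenite addition, not from the 8-minute delta. Rat enzyme is preincubated with NADPH and then with compound at ~22 deg C.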
Tags tell the direction and shape of the fitted curve.

Sequence of UniProt P83916 (P83916 whole entry, looked up): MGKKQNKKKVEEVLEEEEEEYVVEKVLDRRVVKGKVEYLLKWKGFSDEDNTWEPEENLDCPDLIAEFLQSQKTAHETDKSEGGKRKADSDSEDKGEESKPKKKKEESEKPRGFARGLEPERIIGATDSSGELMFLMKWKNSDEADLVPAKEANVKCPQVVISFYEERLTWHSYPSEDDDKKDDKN
Sequence of UniProt O89049 (O89049 whole entry, looked up): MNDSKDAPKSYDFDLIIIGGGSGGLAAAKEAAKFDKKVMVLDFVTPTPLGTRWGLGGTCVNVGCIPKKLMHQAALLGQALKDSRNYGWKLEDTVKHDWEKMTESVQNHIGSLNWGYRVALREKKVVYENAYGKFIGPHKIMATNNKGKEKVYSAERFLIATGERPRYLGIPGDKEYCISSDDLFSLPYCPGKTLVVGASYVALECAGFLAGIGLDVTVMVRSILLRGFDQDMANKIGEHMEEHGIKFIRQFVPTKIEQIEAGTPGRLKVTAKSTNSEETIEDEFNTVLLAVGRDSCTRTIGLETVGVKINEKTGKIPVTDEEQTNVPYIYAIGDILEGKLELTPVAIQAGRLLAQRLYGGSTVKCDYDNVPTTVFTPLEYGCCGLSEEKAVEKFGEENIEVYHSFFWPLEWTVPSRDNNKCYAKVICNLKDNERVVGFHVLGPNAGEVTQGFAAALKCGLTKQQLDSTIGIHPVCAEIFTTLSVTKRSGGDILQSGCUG
Sequence of UniProt O15648 (O15648 whole entry, looked up): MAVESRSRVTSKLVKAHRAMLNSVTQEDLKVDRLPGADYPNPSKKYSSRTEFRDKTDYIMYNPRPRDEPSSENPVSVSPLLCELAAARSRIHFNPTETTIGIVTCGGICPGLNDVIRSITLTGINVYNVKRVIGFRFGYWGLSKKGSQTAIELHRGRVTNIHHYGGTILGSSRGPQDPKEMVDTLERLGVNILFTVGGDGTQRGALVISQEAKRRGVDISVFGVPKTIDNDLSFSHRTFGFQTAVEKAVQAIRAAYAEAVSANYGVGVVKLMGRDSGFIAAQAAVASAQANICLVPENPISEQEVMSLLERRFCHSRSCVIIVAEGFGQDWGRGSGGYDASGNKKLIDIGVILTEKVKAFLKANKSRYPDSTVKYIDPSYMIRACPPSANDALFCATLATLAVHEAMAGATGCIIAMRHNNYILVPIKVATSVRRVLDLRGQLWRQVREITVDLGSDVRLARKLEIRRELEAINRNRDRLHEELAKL
Sequence of UniProt P27695 (P27695 whole entry, looked up): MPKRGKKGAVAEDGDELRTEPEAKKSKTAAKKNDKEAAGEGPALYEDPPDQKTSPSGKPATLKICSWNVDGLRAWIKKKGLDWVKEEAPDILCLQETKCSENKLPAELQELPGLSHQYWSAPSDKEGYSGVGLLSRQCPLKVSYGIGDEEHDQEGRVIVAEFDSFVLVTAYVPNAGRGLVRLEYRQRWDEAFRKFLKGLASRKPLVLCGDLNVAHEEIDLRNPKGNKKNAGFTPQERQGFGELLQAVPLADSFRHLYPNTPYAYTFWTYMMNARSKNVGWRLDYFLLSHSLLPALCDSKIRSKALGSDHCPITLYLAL
Sequence of UniProt Q8NER1 (Q8NER1 whole entry, looked up): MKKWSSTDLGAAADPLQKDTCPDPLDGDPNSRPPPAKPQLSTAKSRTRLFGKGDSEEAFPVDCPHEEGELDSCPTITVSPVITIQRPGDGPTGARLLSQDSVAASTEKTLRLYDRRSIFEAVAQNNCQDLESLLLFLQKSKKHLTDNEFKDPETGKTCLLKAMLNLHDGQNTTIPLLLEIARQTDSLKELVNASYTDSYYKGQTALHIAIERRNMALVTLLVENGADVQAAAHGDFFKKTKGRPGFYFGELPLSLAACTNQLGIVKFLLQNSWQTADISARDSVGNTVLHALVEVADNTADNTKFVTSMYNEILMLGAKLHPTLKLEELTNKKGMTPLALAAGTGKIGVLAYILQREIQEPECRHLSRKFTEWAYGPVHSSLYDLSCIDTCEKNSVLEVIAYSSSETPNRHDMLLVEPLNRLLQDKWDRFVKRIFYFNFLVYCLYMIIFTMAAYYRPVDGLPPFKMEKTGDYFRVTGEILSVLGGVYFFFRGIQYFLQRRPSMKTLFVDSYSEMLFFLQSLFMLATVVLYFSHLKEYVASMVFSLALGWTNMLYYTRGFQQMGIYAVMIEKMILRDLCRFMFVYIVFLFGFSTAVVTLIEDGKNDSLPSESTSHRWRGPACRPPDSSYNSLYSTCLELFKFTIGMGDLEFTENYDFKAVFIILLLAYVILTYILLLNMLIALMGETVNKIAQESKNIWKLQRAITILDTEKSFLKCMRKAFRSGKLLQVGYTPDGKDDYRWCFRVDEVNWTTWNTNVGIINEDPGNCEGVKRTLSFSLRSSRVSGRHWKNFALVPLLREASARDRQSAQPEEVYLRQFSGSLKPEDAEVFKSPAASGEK
Sequence of UniProt Q99549 (Q99549 whole entry, looked up): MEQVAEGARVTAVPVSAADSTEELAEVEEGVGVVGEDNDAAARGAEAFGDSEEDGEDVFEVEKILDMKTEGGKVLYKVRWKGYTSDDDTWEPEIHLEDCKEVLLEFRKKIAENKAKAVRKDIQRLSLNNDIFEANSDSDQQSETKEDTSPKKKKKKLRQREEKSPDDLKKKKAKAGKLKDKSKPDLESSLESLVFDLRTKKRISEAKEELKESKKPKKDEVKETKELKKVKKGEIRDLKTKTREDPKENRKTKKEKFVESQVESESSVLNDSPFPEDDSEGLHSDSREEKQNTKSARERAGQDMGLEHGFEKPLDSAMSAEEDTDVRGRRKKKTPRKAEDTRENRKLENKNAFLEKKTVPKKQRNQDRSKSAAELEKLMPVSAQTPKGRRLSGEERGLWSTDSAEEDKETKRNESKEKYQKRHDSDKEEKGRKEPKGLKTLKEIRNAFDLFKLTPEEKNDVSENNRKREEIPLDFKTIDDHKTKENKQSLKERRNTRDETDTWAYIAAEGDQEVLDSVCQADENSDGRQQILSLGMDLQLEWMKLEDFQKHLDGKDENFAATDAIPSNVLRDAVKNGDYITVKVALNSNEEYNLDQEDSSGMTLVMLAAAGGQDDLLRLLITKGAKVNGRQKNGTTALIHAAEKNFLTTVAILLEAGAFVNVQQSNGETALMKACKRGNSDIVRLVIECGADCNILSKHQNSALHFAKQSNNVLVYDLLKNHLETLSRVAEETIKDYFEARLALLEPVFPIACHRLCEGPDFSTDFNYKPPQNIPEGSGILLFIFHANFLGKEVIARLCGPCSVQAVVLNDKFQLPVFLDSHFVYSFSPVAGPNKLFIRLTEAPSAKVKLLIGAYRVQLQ

CCN(CC)CCCN(c1ccccc1)C1Cc2ccccc2C1
Potency [1]: inconclusive [falling, single point]
Potency [2]: inconclusive [activator, single point]
Potency [3]: inactive

CC(=O)[C@]1(O)Cc2c(O)c3c(c(O)c2[C@@H](O[C@H]2C[C@H](N)[C@H](O)[C@H](C)O2)C1)C(=O)c1c(O)cccc1C3=O
Potency [4]: active: 7.94 µM
Potency [5]: active: 1.41 µM

CCN(CC)CCNc1ccc(CO)c2sc3ccccc3c(=O)c12
Potency [6]: active: 7.94 µM
Potency [4]: active: 15.8 µM
Potency [5]: inactive

CC(C(O)c1ccc(O)cc1)N1CCC(Cc2ccccc2)CC1 (centres undefined)
Potency [1]: active: 11.7 µM
Potency [7]: inconclusive [activator, single point]
Potency [8]: inconclusive [inhibitor, single point]
Potency [9]: inconclusive [activator, single point]

NC(=O)c1ncn([C@@H]2O[C@H](CO)[C@@H](O)[C@H]2O)c1O
Potency [2]: inconclusive [falling, single point]

C[C@@H](N)C1CCC(C(=O)Nc2ccncc2)CC1 (some centres undefined)
Potency [2]: inconclusive [activator, full curve, poor fit]
Potency [8]: inactive
Potency [10]: inactive

O=c1n(CCCN2CCN(c3cccc(Cl)c3)CC2)nc2ccccn12
activity change [11]: inconclusive: -30.7%
Potency [2]: inconclusive [falling, single point]
Potency [12]: inactive

Cc1nnc(SCC2=C(C(=O)O)N3C(=O)[C@@H](NC(=O)Cn4cnnn4)[C@H]3SC2)s1
Potency [2]: inconclusive [falling, single point]
Potency [12]: inactive
Potency [10]: inconclusive [inhibitor, partial curve]

CC(C)(C)NC(=O)[C@H]1CC[C@H]2[C@@H]3CC[C@H]4NC(=O)C=C[C@]4(C)[C@H]3CC[C@]12C
Potency [8]: inactive

C[C@]12C=CC(=O)C=C1CC[C@H]1[C@@H]3C[C@@H](O)[C@](O)(C(=O)CO)[C@@]3(C)C[C@H](O)[C@@]12F
activity change [11]: inconclusive: -25%
Potency [3]: inconclusive [inhibitor, single point]

CC(CN(C)C)CN1c2ccccc2CCc2ccccc21 (centres undefined)
Potency [11]: inactive
Potency [2]: inactive
Potency [8]: inconclusive [inhibitor, single point]
Potency [12]: inconclusive [inhibitor, single point]
Potency [9]: inconclusive [activator, single point]

OCc1ccc(-c2nn(Cc3ccccc3)c3ccccc23)o1
Potency [7]: active: 12.6 µM
Potency [2]: inconclusive [falling, partial curve]
Potency [3]: inconclusive [inhibitor, partial curve]
Potency [13]: active: 25.1 µM
Potency [10]: active: 39.8 µM

CC(C(=O)O)c1ccc(CC2CCCC2=O)cc1 (centres undefined)
Potency [2]: inconclusive [activator, single point]
Potency [14]: inconclusive [inhibitor, full curve, poor fit]
Potency [10]: inconclusive [inhibitor, single point]

Cn1cnc([N+](=O)[O-])c1Sc1ncnc2nc[nH]c12
Potency [7]: inconclusive [activator, full curve]
activity change [11]: inconclusive: -40.6%
Potency [12]: inconclusive [inhibitor, single point]
Potency [3]: active: 15 µM

CC(C[N+](C)(C)C)OC(N)=O (centres undefined)
Potency [8]: inactive
Potency [12]: inactive

CCN(CC)CCCC(C)Nc1ccnc2cc(Cl)ccc12 (centres undefined)
Potency [8]: active: 0.262 µM

CC1=C(/C=C/C(C)=C/C=C/C(C)=C/C(=O)O)C(C)(C)CCC1
Potency [7]: inconclusive [activator, single point]
Potency [2]: inconclusive [falling, single point]
Potency [8]: inconclusive [inhibitor, single point]
Potency [12]: inconclusive [inhibitor, single point]
Potency [3]: inconclusive [inhibitor, partial curve, poor fit]
Potency [10]: inconclusive [inhibitor, partial curve]

CCN(CC)C(C)CN1c2ccccc2Sc2ccccc21 (centres undefined)
Potency [2]: inconclusive [activator, full curve, poor fit]
Potency [3]: inconclusive [inhibitor, single point]
Potency [10]: active: 0.0299 µM
